# Experimental data reported in PubChem BioAssay AID1347073 (National Center for Advancing Translational Sciences (NCATS), 2019).
# Out of some 45,000 compounds screened, about 200 (0.44%) were called active. Roughly 7% stayed inconclusive and do not appear here. Calls come from the whole dose curve; as a rule, active = well fitted activation curve with a large enough effect; inconclusive = small, poorly fitted or top-dose-only effect; inactive = no such curve, though single readings can be large or run the other way. This is one part of the list.
# Test: qHTS of TDP-43 Inhibitors: NCGC Sytravon Library Screen; note: nearly all actives have a fitted effect of over 55% in size; for growth rescue (activation): 0% is about no effect
# Conditions: yeast TDP-43 toxicity rescue, BacTiter-Glo growth, 24 h; series mostly up to 46.1 µM; growth rescue (activation): at the top concentration
# How it was run: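 TDP-43-expressing yeast, pregrown in raffinose, seeded at OD600 0.02 in galactose medium with compound for 24 hr at 30 deg C. Growth read by BacTiter-Glo luminescence, so rescue of toxicity appears as activation.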
# Potency is the fitted concentration of half-maximal effect.
SMILES,growth rescue (activation),Potency
Cc1cccc(CC(=O)N2CCC(n3nccc3NC(=O)C3CC3)CC2)c1,inactive: 9.11%,
COC(=O)c1cc(CSc2nc3ccccc3c(=O)n2C)oc1C,inactive: 14.1%,
COc1ccc(-c2c3c(=O)n(C)c(=O)n(C)c3cn2-c2ccc(O)cc2)cc1,inactive: 12.8%,
Cc1ccc(S(=O)(=O)N2CC(O)CC2C(=O)OCc2nc3sc(C)c(C)c3c(=O)[nH]2)cc1 (stereo not drawn),inactive: 15.3%,
CC1(C)c2ccccc2N2CC(=O)NC21/C=C/c1ccco1 (stereo not drawn),inactive: 17.6%,
COc1cccc(C(NC(C)=O)c2ccc3cccnc3c2O)c1 (stereo not drawn),inactive: -8.71%,
Cc1ccc(S(=O)(=O)N(C)c2ccc(OCC(=O)Nc3nnc(C4CC4)s3)cc2)cc1,inactive: 1.19%,
Cc1cc(C)c(S(=O)(=O)c2ccccc2)c(OC(=O)c2c(Cl)cccc2Cl)n1,inactive: 39.4%,
CC(C)CCNC(=O)NC(=O)COC(=O)CCN=C1NS(=O)(=O)c2ccccc21,inactive: 4.19%,
O=C(O)c1cc2c(cn1)[nH]c1ccccc12,inactive: 12.6%,
CN(C)CCOc1nc(-c2ccccc2)nc2c1oc1ccccc12,inactive: 12.2%,
Cc1cc(/C=C2/C(=O)NN(c3ccccc3)C2=O)c(C)n1-c1cccc(O)c1,inactive: -17%,
CC1CN(C(=O)CCC(=O)NCc2cccc(Cl)c2)c2ccccc2S1 (stereo not drawn),inactive: 26.3%,
CSc1ncccc1C(=O)NCCc1ccccc1F,inactive: 9.1%,
S=C(NCc1ccco1)N/N=C/c1ccncc1,inactive: 3.28%,
COc1ccc(C(C)=O)cc1COC(=O)CNC(=O)C1CCCCC1,inactive: 8.53%,
O=C(NCc1ccc2c(c1)OCO2)NC1CCCCC1,inactive: -4.63%,
Cc1noc(C)c1S(=O)(=O)N(C)Cc1ccccc1,inactive: -3.42%,
Cc1ccc(S(=O)(=O)/N=C2\CN(C)C(=O)N2C)cc1,inactive: -3.78%,
COc1cc(CNC23CC4CC(CC(C4)C2)C3)ccc1OCc1ccccc1,inactive: 2.76%,
Cc1nn(C(C)C(=O)NC2CCC(C)CC2)c(=O)c2c1sc1ccccc12 (stereo not drawn),inactive: 15.1%,
N#CC1=C(N)Oc2cc(O)c(C=Nc3ccccc3)cc2C1c1ccccc1 (stereo not drawn),inactive: 19.1%,
Cc1cccc(NC(=O)CN(CC2CCCO2)C(=O)c2cc3ccccc3o2)c1C (stereo not drawn),inactive: 20.1%,
CCOc1ccccc1-c1noc(CCC(=O)NC2CCCCC2)n1,inactive: -0.083%,
Cc1ccc(NC(=O)COC(=O)c2ccc(OCc3c(C)noc3C)cc2)cc1S(=O)(=O)N1CCOCC1,inactive: -2.78%,
Cc1ccc(OCC(=O)NCCCNC(=O)c2ccncc2)cc1,inactive: -1.95%,
COc1ccc(CC(=O)N2CCN(c3ccccc3F)CC2)cc1OC,inactive: 16.3%,

SMILES,growth rescue (activation),Potency
Cc1cccc(N2C(=O)/C(=C/c3cccnc3)SC2=S)c1,inactive: -11.5%,
N#Cc1c(SCC(=O)Nc2ccccc2C(F)(F)F)sc2c(O)cc(=O)[nH]c12,inactive: 7.78%,
Cc1ccc(S(=O)(=O)N(CCC(=O)N2CCOCC2)c2ccccc2)cc1,inactive: 10.5%,
Cc1ccc(Cc2c(C)nc3nc(SCC(=O)NCCCN4CCCC4)nn3c2C)cc1,inactive: 12%,
COc1ccccc1C(=O)N/C(=C\c1ccc(Br)cc1)C(=O)NCCC(=O)O,inactive: 6.05%,
CSc1ccc(S(=O)(=O)N2CCC(C(=O)Nc3ccccc3C(F)(F)F)CC2)cc1,inactive: 15.3%,
NS(=O)(=O)c1ccc(NC(=S)NCc2ccc(F)cc2)cc1,inactive: 0.909%,
COC(=O)c1c(NC(=O)/C=C/C(=O)O)sc(C)c1-c1ccc(C)cc1,inactive: 8.74%,
CCC1CCCCN1CCCNC(=O)CNC(=O)c1nn(-c2ccc(OC)c(Cl)c2)c(=O)c2ccccc12 (stereo not drawn),inactive: 13.6%,
COc1cc(/C=C2\CCC(C3CCCC3)C2=O)ccc1OC(C)C (stereo not drawn),inactive: -2.63%,
COc1ccc(CNC(=O)CN(c2cccc([N+](=O)[O-])c2)S(C)(=O)=O)cc1,inactive: -5.41%,
Cc1ccc(NC(=O)N2CCCC2C(=O)Nc2ccc3c(c2)OCO3)cc1 (stereo not drawn),inactive: 8.4%,
Cc1ccc(CSCC(=O)NCc2cccnc2)cc1,inactive: 4.97%,
O=C(Nc1ccc(NS(=O)(=O)c2ccccc2)cc1)c1ccccc1Cl,inactive: 20.6%,
CCC(=O)Nc1ccc(C(=O)N2CCN(C(=O)c3ccco3)CC2)cc1,inactive: -5.64%,
CC1(C(=O)NS(=O)(=O)C2CC2)CCCN(C(=O)COc2ccc(Cl)cc2Cl)C1 (stereo not drawn),inactive: -11.5%,
CCc1nnc(NC(=O)CS(=O)(=O)c2ccccc2)s1,inactive: -1.14%,
CCc1n[nH]c(=S)n1/N=C/c1ccccc1OCc1ccc(Cl)cc1,inactive: 5.42%,
O=C(Nc1cccc(NC(=O)c2ccco2)c1)c1ccccc1,inactive: 10.6%,
O=C(c1ccc(F)cc1F)N1CCCC(c2nc(-c3cccs3)no2)C1 (stereo not drawn),inactive: 5.67%,
COc1cc(/C=C/C(=O)c2ccc3c(c2)OCCO3)cc(Br)c1OCC(=O)N(C)C,,active: 15.8 µM
O=C(COC(=O)COc1ccc2ccccc2c1)NCC(F)(F)F,inactive: -18.9%,
COc1cccc(NC(=O)CN(c2ccc([N+](=O)[O-])cc2)S(=O)(=O)c2ccccc2)c1,inactive: 27.3%,
CC(C)(C)N(Cc1ccccc1)C(=O)COC(=O)C1CC1,inactive: -16.4%,
COCC(C)n1c(C)cc(C(=O)COC(=O)CCc2nc3ccccc3c(=O)[nH]2)c1C (stereo not drawn),inactive: 7.13%,
Cc1nc(SCC(=O)c2ccccc2)c(C#N)c(-c2ccco2)c1C(=O)NCc1ccco1,inactive: -26.3%,
